The list shows a part of the results. The list includes weakly bound sequences.
What follows are sequences tested against T1, MBP-FoxP3dN (UniProt Q99JB6) (assay: PD-seq (MBP pull-down with sequencing)). Conditions: 20 mM Tris-HCl pH 7.5, 100 mM NaCl, 1.5 mM MgCl2, 0.4 uM protein, 0.1 uM dsDNA library, 30 min, room temperature, amylose pull-down; high values mean tight binding; double strand, one strand shown.
T1 sequence: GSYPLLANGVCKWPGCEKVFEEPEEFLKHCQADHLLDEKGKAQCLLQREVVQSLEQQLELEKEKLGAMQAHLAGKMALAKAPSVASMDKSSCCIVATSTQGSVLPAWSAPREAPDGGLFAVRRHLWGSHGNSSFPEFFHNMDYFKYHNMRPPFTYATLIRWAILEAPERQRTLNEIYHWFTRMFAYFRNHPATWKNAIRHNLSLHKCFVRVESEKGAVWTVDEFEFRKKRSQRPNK

Row | Sequence | binding signal (RPM ratio (pull-down/input))
1 | GATGATTGTTCTCCCAGCTGATGAATTGGACCACTCGAGTAAACAAATTTTCCTAATCTTTCTGTTCAAGCGCCATCTAC | 0.382
2 | GATGATTGTTCTCCCAGCTGATGAATTTGGAGCATCGAGTAAACAAATTTTCCTAATCTTTCTGTTCAAGCGCCATCTAC | 0.753
3 | GATGATTGTTCTCCCAGCTGATGAATTGTTGGGTTCGAGTAAACAAATTTTCCTAATCTTTCTGTTCAAGCGCCATCTAC | 1.91
4 | GATGATTGTTCTCCCAGCTGATGAATTTCGCCCCTCGAGTAAACAAATTTTCCTAATCTTTCTGTTCAAGCGCCATCTAC | 1.99
5 | GATGATTGTTCTCCCAGCTGATGAATTTGGGCACTCGAGTAAACAAATTTTCCTAATCTTTCTGTTCAAGCGCCATCTAC | 0.562
6 | GATGATTGTTCTCCCAGCTGATGAATTCGTCGCCTCGAGTAAACAAATTTTCCTAATCTTTCTGTTCAAGCGCCATCTAC | 0.691
7 | GATGATTGTTCTCCCAGCTGATGAATTAGCAGGTTCGAGTAAACAAATTTTCCTAATCTTTCTGTTCAAGCGCCATCTAC | 0.332
8 | GATGATTGTTCTCCCAGCTGATGAATTCGATAGCTCGAGTAAACAAATTTTCCTAATCTTTCTGTTCAAGCGCCATCTAC | 0.887
9 | GATGATTGTTCTCCCAGCTGATGAATTATGAAAATCGAGTAAACAAATTTTCCTAATCTTTCTGTTCAAGCGCCATCTAC | 0.243
10 | GATGATTGTTCTCCCAGCTGATGAATTCATGCTTTCGAGTAAACAAATTTTCCTAATCTTTCTGTTCAAGCGCCATCTAC | 0.987
11 | GATGATTGTTCTCCCAGCTGATGAATTAGGTGCTTCGAGTAAACAAATTTTCCTAATCTTTCTGTTCAAGCGCCATCTAC | 0.806
12 | GATGATTGTTCTCCCAGCTGATGAATTACCTGCATCGAGTAAACAAATTTTCCTAATCTTTCTGTTCAAGCGCCATCTAC | 0.918
13 | GATGATTGTTCTCCCAGCTGATGAATTCGTAGAGTCGAGTAAACAAATTTTCCTAATCTTTCTGTTCAAGCGCCATCTAC | 0.323
14 | GATGATTGTTCTCCCAGCTGATGAATTCACAGGTTCGAGTAAACAAATTTTCCTAATCTTTCTGTTCAAGCGCCATCTAC | 0.281
15 | GATGATTGTTCTCCCAGCTGATGAATTGTCGAGGTCGAGTAAACAAATTTTCCTAATCTTTCTGTTCAAGCGCCATCTAC | 0.266
16 | GATGATTGTTCTCCCAGCTGATGAATTGCTCGATTCGAGTAAACAAATTTTCCTAATCTTTCTGTTCAAGCGCCATCTAC | 0.514

Row | Sequence | binding signal (RPM ratio (pull-down/input))
17 | GATGATTGTTCTCCCAGCTGATGAATTTCATGATTCGAGTAAACAAATTTTCCTAATCTTTCTGTTCAAGCGCCATCTAC | 0.692
18 | GATGATTGTTCTCCCAGCTGATGAATTAGGCGGATCGAGTAAACAAATTTTCCTAATCTTTCTGTTCAAGCGCCATCTAC | 0.513
19 | GATGATTGTTCTCCCAGCTGATGAATTGGTGCTTTCGAGTAAACAAATTTTCCTAATCTTTCTGTTCAAGCGCCATCTAC | 1.06
20 | GATGATTGTTCTCCCAGCTGATGAATTCTAGACATCGAGTAAACAAATTTTCCTAATCTTTCTGTTCAAGCGCCATCTAC | 0.391
21 | GATGATTGTTCTCCCAGCTGATGAATTGGGTTTGTCGAGTAAACAAATTTTCCTAATCTTTCTGTTCAAGCGCCATCTAC | 2.38
22 | GATGATTGTTCTCCCAGCTGATGAATTAAATCCTTCGAGTAAACAAATTTTCCTAATCTTTCTGTTCAAGCGCCATCTAC | 0.25
23 | GATGATTGTTCTCCCAGCTGATGAATTGCGATGTTCGAGTAAACAAATTTTCCTAATCTTTCTGTTCAAGCGCCATCTAC | 2.02
24 | GATGATTGTTCTCCCAGCTGATGAATTAGATAGTTCGAGTAAACAAATTTTCCTAATCTTTCTGTTCAAGCGCCATCTAC | 0.959
25 | GATGATTGTTCTCCCAGCTGATGAATTAGCCAGATCGAGTAAACAAATTTTCCTAATCTTTCTGTTCAAGCGCCATCTAC | 0.176
26 | GATGATTGTTCTCCCAGCTGATGAATTCTGCTTGTCGAGTAAACAAATTTTCCTAATCTTTCTGTTCAAGCGCCATCTAC | 4.57
27 | GATGATTGTTCTCCCAGCTGATGAATTGCGTACCTCGAGTAAACAAATTTTCCTAATCTTTCTGTTCAAGCGCCATCTAC | 1.42
28 | GATGATTGTTCTCCCAGCTGATGAATTCTGCAGCTCGAGTAAACAAATTTTCCTAATCTTTCTGTTCAAGCGCCATCTAC | 2.66
29 | GATGATTGTTCTCCCAGCTGATGAATTTCGTCCCTCGAGTAAACAAATTTTCCTAATCTTTCTGTTCAAGCGCCATCTAC | 0.799
30 | GATGATTGTTCTCCCAGCTGATGAATTTCGTTCATCGAGTAAACAAATTTTCCTAATCTTTCTGTTCAAGCGCCATCTAC | 0.585
31 | GATGATTGTTCTCCCAGCTGATGAATTCGCGTGGTCGAGTAAACAAATTTTCCTAATCTTTCTGTTCAAGCGCCATCTAC | 1.61

— PMC12820563
